Among all 270,000 compounds or so, about 5,800 (2.1%) were called active. The inconclusive results got no clear call from the source; some entries with a clear call stand among them for comparison. The call rests on the fitted dose curve; in most records, active means well fitted inhibition curve with a large enough effect; inconclusive means small, poorly fitted or top-dose-only effect; inactive means flat fitted curve, though single readings scatter. Potencies beside an inconclusive call are fits to weak or partial responses and may not hold up.
These compounds were tested against Microtubule-associated protein tau (Homo sapiens) (UniProt P10636) (assay: qHTS for Inhibitors of Tau Fibril Formation, Thioflavin T Binding). Conditions: recombinant tau K18 P301L (four-repeat tau fragment), heparin-induced fibrillization, ThT fluorescence; series mostly up to 57.4 µM.
Chain of UniProt P10636 (P10636 whole entry, looked up, the tested form may be a part): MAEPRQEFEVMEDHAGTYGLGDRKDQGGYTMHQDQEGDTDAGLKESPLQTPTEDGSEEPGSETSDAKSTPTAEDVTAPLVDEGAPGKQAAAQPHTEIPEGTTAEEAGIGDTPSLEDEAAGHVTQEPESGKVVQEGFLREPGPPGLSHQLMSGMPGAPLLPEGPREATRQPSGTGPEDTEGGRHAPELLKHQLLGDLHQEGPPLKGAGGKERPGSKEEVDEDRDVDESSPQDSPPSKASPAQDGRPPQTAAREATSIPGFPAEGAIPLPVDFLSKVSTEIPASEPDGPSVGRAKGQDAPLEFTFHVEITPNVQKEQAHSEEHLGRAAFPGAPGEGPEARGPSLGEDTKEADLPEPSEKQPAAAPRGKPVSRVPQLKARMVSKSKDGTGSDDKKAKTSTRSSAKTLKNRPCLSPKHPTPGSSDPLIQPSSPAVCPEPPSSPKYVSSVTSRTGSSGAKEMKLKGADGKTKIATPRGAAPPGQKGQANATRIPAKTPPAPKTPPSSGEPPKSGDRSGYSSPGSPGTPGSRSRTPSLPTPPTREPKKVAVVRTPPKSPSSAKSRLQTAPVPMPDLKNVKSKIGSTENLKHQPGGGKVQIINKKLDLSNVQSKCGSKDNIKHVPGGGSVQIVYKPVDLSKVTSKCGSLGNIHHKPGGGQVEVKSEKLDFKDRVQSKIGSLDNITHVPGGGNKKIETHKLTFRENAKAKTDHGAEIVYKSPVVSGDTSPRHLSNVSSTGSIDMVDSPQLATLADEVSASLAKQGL
Method in brief: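 Aggregation was driven by heparin (20 uM final) acting on recombinant tau […] bearing P301L in 100 mM sodium acetate pH 7; fibrils were detected with Thioflavin T.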
In the case of Cc1ccc(C)c2[nH]c(=O)c(CN(Cc3ccco3)C(=O)Nc3ccccc3)cc12, the Potency is reported as inconclusive: 28.2 µM [inhibitor, partial curve]. COc1cccc2nc3cc(C)c(C)cc3nc12 was tested, and the Potency was active: 22.4 µM. For OC(CSc1c(Cl)cccc1Cl)CN1CCN(c2ccc(F)cc2)CC1 (stereo unspecified), the Potency was inconclusive: 20 µM [inhibitor, partial curve]. For CCOC(=O)C1=C(C)c2ccccc2N(C(=O)OC)C1(C)C(=O)OCC (stereo unspecified), the Potency was inconclusive: 39.8 µM [inhibitor, single point]. COc1ccc(OC)c(NC(=O)CSc2ccccc2)c1 was tested, and the Potency was “inactive”. For O=C(NCc1ccc2c(c1)OCO2)c1cccc(F)c1, the Potency was “inactive”. CCOC(=O)N1CCN(S(=O)(=O)c2ccc(C(=O)NNc3nc4c(C)cccc4s3)cc2)CC1 was tested, and the Potency was active: 20 µM. For O=C(CSC1=Nc2ccccc2C2=NC(Cc3c[nH]c4ccccc34)C(=O)N12)NC1CCCCC1 (stereo unspecified), the Potency was inconclusive: 31.6 µM [inhibitor, partial curve]. In the case of CCOc1ccc2nc(NS(=O)(=O)c3ccc4c(c3)n(C)c(=O)n4C)sc2c1, the Potency is reported as inconclusive: 20 µM [inhibitor, partial curve]. In the case of CCCC(=O)NC(c1ccco1)c1cc([N+](=O)[O-])c2cccnc2c1O (stereo unspecified), the Potency is reported as inconclusive: 12.6 µM [inhibitor, partial curve]. For Cc1c(C(=O)Nc2cccc(C(F)(F)F)c2)oc2ccc(S(=O)(=O)N3CCC4(CC3)OCCO4)cc12, the Potency was “inactive”. O=C(CCn1c(=O)c2cccn2c2cccnc21)Nc1ccccc1Br was tested, and the Potency was “inactive”. With COc1ccccc1CNc1ccnc(-c2ccc3c(c2)OCO3)n1 the Potency was “inactive”. O=C(CSCc1ccc(F)cc1)N1CCc2c([nH]c3ccccc23)C1c1ccc(F)cc1 (stereo unspecified) was tested, and the Potency was “inactive”. For Cc1cc(S(=O)(=O)Nc2cc3c(cc2NCc2ccccc2)n(C)c(=O)n3C)ccc1F, the Potency was inconclusive: 25.1 µM [inhibitor, partial curve]. With O=C(CSc1nnc(-c2ccc(F)cc2)o1)Nc1ccc(S(=O)(=O)N2CCCC2)cc1 the Potency was “inactive”. For COc1cc2oc3cc(C)oc(=O)c3c2cc1OC, the Potency was inconclusive: 8.91 µM [inhibitor, partial curve]. In the case of COc1ccc(S(=O)(=O)N2CCN(c3ccc(C)cc3C)CC2)cc1OC, the Potency is reported as “inactive”. In the case of Cc1ccc2nc(NC(=O)COC(=O)c3ccccn3)sc2c1, the Potency is reported as inconclusive: 15.8 µM [inhibitor, partial curve, poor fit]. CCc1ccc(C2CC(=O)N(c3cccc(F)c3)C3=C2C(=O)OC3)cc1 (stereo unspecified) was tested, and the Potency was “inactive”. For O=C(Oc1cccnc1)c1ccc(Cl)c(Cl)c1, the Potency was inconclusive: 31.6 µM [inhibitor, partial curve].
Further: nearly all actives have a fitted effect of over 55% in size.
Potency means the concentration at half of the fitted maximal effect; tags describe the fitted curve by direction and shape.
